According to PubChem BioAssay AID1963576 (National Center for Advancing Translational Sciences (NCATS), 2024):
About 60 (0.1%) of roughly 46,000 compounds were called active. Not shown: some 3% with an inconclusive outcome. The call rests on the fitted dose curve; in most records, active means well fitted inhibition curve with a large enough effect; inconclusive means small, poorly fitted or top-dose-only effect; inactive means no such curve, though single readings can be large or run the other way. The list shows a part of the results.

assay: Primary qHTS assay for Inhibitors of ovarian cancer metastasis using an organotypic tumor microenvironment (TME) model.; further: nearly all actives have a fitted effect of over 65% in size;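 on activity change, negative = inhibition: plate controls were DMSO wells for no effect and tomatine positive control wells for full effect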; settings: SKOV3ip1-GFP adhesion/invasion on 3D omental model, fluorescence; series mostly up to 45.8 µM; activity change, negative = inhibition: at the top concentration
How it was run: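 Primary human omental fibroblast/mesothelial 3D culture pre-formed 48 h. SKOV3ip1-GFP cells added with compounds (0.36-46 umol/L), incubated 2 h RT/16 h 37 C, fixed; GFP cells quantified at 488/509 nm.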

Activity change, negative = inhibition, inactive:
Cc1ccc(Cl)cc1N1CCN(C(=O)c2cn(C)c3ccc(S(=O)(=O)N4CCCC4)cc3c2=O)CC1 1.13%
CC(C)CC(=O)N(Cc1ccccc1)S(=O)(=O)c1ccc2c(c1)oc(=O)n2C 0.843%
CC(=O)c1ccc(NC(=O)COc2ccccc2-c2nc(C)no2)cc1 -8.29%
COc1ccc(Br)cc1CNC(=O)c1cc2c(=O)n(C)c3ccccc3c2s1 4.87%
CCN1CCN(c2ncc3c(n2)CCN(Cc2ccc(C)s2)C3)CC1 -1.17%
CC(=O)c1cc(-c2ccccc2)n(CC(=O)Nc2ccc(C)cc2C)c1C 6.06%
Nc1nonc1-c1nc2ccccc2n1CC(=O)Nc1ccc(F)cc1 -3.34%
Cc1cccc(N2CCN(C(=O)c3ccc4c(c3)CCN4S(=O)(=O)c3ccccc3)CC2)c1C -5.96%
CCOc1ccccc1NC(=O)NC(CC)c1c(-n2cccc2)sc2c1CCN(C)C2 (configuration not stated) -0.256%
CCc1ccc(S(=O)(=O)c2nnn3c2nc(NCCC(C)C)c2cc(Cl)ccc23)cc1 23.8%
CCc1ccccc1NC(=O)CSc1nccn1C -1.89%
Cn1c(SCC(=O)Nc2ccccc2F)nc2c([nH]c3ccccc32)c1=O -7.28%
CCOc1ccc(NS(=O)(=O)c2ccc3[nH]cc(C(=O)NCCc4ccccc4)c(=O)c3c2)cc1 7.43%
Cn1nc(C(=O)Nc2cccc(C(F)(F)F)c2)c2c1-c1ccccc1S(=O)(=O)C2 3.42%
CCCN(CCC)S(=O)(=O)c1ccc(C(=O)N2CCn3c4c(c5cc(C)ccc53)CCCC42)cc1 (configuration not stated) 4.96%
CC(=O)c1ccc(OC(=O)c2c(-c3ccccc3Cl)noc2C)cc1 -3.36%
COc1cccc(CNC(=O)C2CCN(c3ncnc4c3nc3n4CCCCC3)CC2)c1 4.8%
Cc1[nH]c2ccccc2c1SCCNC(=O)c1ccc(F)cc1 4.9%
COc1ccc(Cl)cc1NC(=O)c1c(NCc2cccs2)sc2c1CCC(C)C2 (configuration not stated) -18.5%
Cn1c(=O)nc2n(-c3ccc(Br)cc3)c3cccc(Cl)c3cc-2c1=O 9.09%
Cc1ccc(C)c(N2CCN(S(=O)(=O)c3ccc(C4CCCCC4)cc3)CC2)c1 6.7%
Cc1ccc(Nc2c(-c3cccc(Cl)c3)nc3cccc(C)n23)cc1 7.75%
Cc1ccc(NC(=O)CSc2nc(=O)n(CCN3CCOCC3)c3c2CCC3)cc1Cl 2.91%
CN(C)C1(CNC(=O)COc2cccc(Cl)c2)CCCCC1 -13.1%
Cc1ccccc1C(=O)Nc1ccc2nc(SCC(=O)N(C)c3ccccc3)sc2c1 -14.1%
Cc1cccc(Cn2c(SCc3ccc(C(=O)NCc4cccs4)cc3)nc3ccncc32)c1 -3.36%
O=C1CCC[C@@H]2[C@H]3CCC[N+]4([O-])CCC[C@@H](CN12)[C@@H]34 (some centres not stated) -2.7%
Cn1cc(-c2cc3n(n2)CCC(=O)N3CC(=O)NCc2ccccc2)c2ccccc21 0.0869%
COc1ccc(N(C(=O)c2cc(OC)c(OC)c(OC)c2)S(=O)(=O)c2ccc(C)cc2)cc1 2.64%
CC(C)c1ccc(Cc2cnc(NC(=O)c3ccc4c(c3)CC(c3ccccc3)OC4=O)s2)cc1 (configuration not stated) -10.2%
Cc1cccc(C(=O)NCc2cn3cccc(C)c3n2)c1 9.79%
CCOC(=O)C1CCCN(C(=O)Cn2nc(C)n3c(cc4c(OC)cccc43)c2=O)C1 (configuration not stated) -23.9%
CCC(C)n1c(=N)c(C(=O)NC2CCCCC2)cc2c(=O)n3cc(C)ccc3nc21 (configuration not stated) 23.7%
COc1ccccc1OC(C)C(=O)N1CCN(CCc2ccccn2)CC1 (configuration not stated) -0.612%
Cc1ccc(C)c(NC(=O)C(NS(=O)(=O)c2ccc3c(c2)CCC(=O)N3)c2ccccc2)c1 (configuration not stated) 3.45%
Cc1ccc(CNC(=O)C2CCN(S(=O)(=O)c3c(C)noc3/C=C/c3ccccc3F)CC2)o1 -8.03%
COc1cccc(CNC(=O)C2CCCN(S(=O)(=O)c3cn(C)cn3)C2)c1 (configuration not stated) 10%
Cc1ccc(-n2c(=O)c3cccnc3n2CC(=O)Nc2ccccc2C(F)(F)F)cc1C 2.01%
CCN(CC)c1ccc(C2C(C(N)=O)=C(C)Nc3nc(SCc4ccccc4)nn32)cc1 (configuration not stated) 156%
O=c1c2ccccc2nc2sc(Nc3cccc(C(F)(F)F)c3)nn12 4.06%
COc1ccc(-c2noc(CCC(=O)Nc3ccccc3Cl)n2)cc1OC 1.76%
Cc1ccc(N2CC(NC(=O)Cc3ccc(F)cc3)CC2=O)cc1C (configuration not stated) -0.403%

outcome, inactive:
CCOc1ccc(C(=O)OCc2cc(=O)n3nc(C(C)C)sc3n2)cc1
Cc1cccc(CCNC(=O)c2nc(-c3ccc(Cl)cc3)n3c2CCCCC3)c1
Cc1ccc(-c2nc(CS(=O)CC(=O)O)c(C)o2)cc1 (configuration not stated)
Cc1ccc(S(=O)(=O)c2cn(CC(=O)Nc3ccccc3)c3cc4c(cc3c2=O)OCO4)cc1
CCOC(=O)c1cc(OC(=O)c2cc(Cl)ccc2OC)n(-c2ccccc2)n1
COc1ccccc1Nc1ncnc2c1nc1n2CCCCC1
O=C(COc1ccc(Cl)cc1Cl)Nc1ccc(C(=O)OC2CCCCC2)cc1
COc1ccc2c(c1)c(CC(=O)Nc1cc(C)c(OC)c(C)c1)c(C)n2C(=O)c1ccc(Cl)cc1
O=C(Nc1cc(-c2nc3ccccc3o2)ccc1Cl)c1cc([N+](=O)[O-])ccc1N1CCOCC1
Cc1cc(-c2ccc(C)c(S(=O)(=O)NCCc3ccccc3)c2)on1
CC(C)c1ccc(NC(=O)CSC2=Nc3ccccc3C3=NC(CC(=O)NCCc4ccccc4)C(=O)N23)cc1 (configuration not stated)
CCOc1ccccc1NC(=O)CSc1nc(-c2cccs2)cc(C(F)(F)F)n1
CCCc1noc(-c2ccc(NCc3ccccc3OC)c([N+](=O)[O-])c2)n1
CCC(=O)N1c2ccccc2CC1C(=O)NCCN1CCN(c2ccccc2F)CC1 (configuration not stated)
O=c1cc(N2CCN(c3ccc(F)cc3)CC2)[nH]c(=O)n1-c1cccc(Br)c1
CC[C@H](C)NC(=O)CCCc1nnc2n(CCC(C)C)c(=O)c3sccc3n12
COc1ccc(-c2cn3c(n2)sc2cc(C(=O)NC4CCCCC4)ccc23)cc1
Cc1ccnc(NC(c2cc(C)ccc2O)c2ccc3cccnc3c2O)c1 (configuration not stated)
COCCN1CN=C(NS(=O)(=O)c2ccc(C)cc2)NC1
COc1ccccc1CNC(=O)c1cnn(-c2ccc(F)cc2F)c1C1CCN(C(=O)OC(C)(C)C)CC1
